# Screen size: about 420,000 compounds; about 64,000 (15%) were called active. This list was built around the results that the source calls inconclusive (neither active nor inactive); the mix of calls is not that of the screen. Calls follow the shape of the dose curve; as a rule, active = well fitted inhibition curve with a large enough effect; inconclusive = small, poorly fitted or top-dose-only effect; inactive = flat fitted curve, though single readings scatter. No potency is given beside an inconclusive call; the fits are too rough.
# Test: qHTS for Inhibitors of human tyrosyl-DNA phosphodiesterase 1 (TDP1): qHTS in cells in absence of CPT; also: nearly all actives have a fitted effect of over 55% in size
# Details: DT40 Tdp1-/- hTDP1 cells, no CPT, ATP luminescence, 48 h; series mostly up to 46.2 µM
# Outline: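 Chicken DT40 Tdp1-/- cells stably complemented with human TDP1 were seeded at 400 cells/well with DMSO in place of 20 nM camptothecin. After compound pinning, cells grew at least 48 hr at 37 °C; viability read by CellTiter-Glo luminescence.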
# Potency is read from the fitted curve at half-maximal effect; tags tell the direction and shape of the fitted curve.
row,SMILES,Potency
1,CCc1nnc(NC(=O)c2ccc(S(=O)(=O)N3CCc4ccccc4C3)cc2)s1,"inconclusive [inhibitor, partial curve, poor fit]"
2,O=C(CC1CCCCC1)N=C1SC2CS(=O)(=O)CC2N1c1ccccc1 (stereo not drawn),inactive
3,COc1ccccc1CNC(=O)C1CCN(S(=O)(=O)N2CC(C)CC(C)C2)CC1 (stereo not drawn),"inconclusive [inhibitor, single point]"
4,Cc1ccc(OCC(=O)NNC(=S)NC(=O)c2ccc(Br)o2)c(C)c1,active: 13 µM
5,COc1ccc(COc2cc(-c3cccc(OC)c3)nc3ccc(N)cc23)cc1,active: 1.46 µM
6,Cc1c(C(=O)O)c(O)cc2c1C(=O)c1c(O)c([C@H]3O[C@H](CO)[C@@H](O)[C@H](O)[C@H]3O)c(O)c(O)c1C2=O,"inconclusive [inhibitor, partial curve]"
7,CCOc1ccc(S(=O)(=O)N2CCCC(C(=O)NCc3ccccn3)C2)cc1C (stereo not drawn),"inconclusive [inhibitor, single point]"
8,CCOc1ccccc1N1CCN(CC(O)COc2ccc3c(C)cc(=O)oc3c2)CC1 (stereo not drawn),inactive
9,Cn1cnnc1SCCNS(=O)(=O)c1cccc([N+](=O)[O-])c1,inactive
10,CC1CCN(CCCNC(=O)c2ccc(CSCc3cccc(Cl)c3)o2)CC1,"inconclusive [inhibitor, single point]"
11,COc1ccc(-c2cc(-c3nc4ccccn4c3NCc3ccccc3)ccc2OC)cc1,"inconclusive [inhibitor, single point]"
12,O=C(COc1ccc(Cl)cc1)NCCS(=O)(=O)N1CCN(c2ccccc2F)CC1,"inconclusive [inhibitor, single point]"
13,N=c1n(CCN2CCCCC2)c2ccccc2n1CC(O)c1ccc(Cl)c(Cl)c1 (stereo not drawn),active: 8.2 µM
14,O=C(CSc1nnc(-c2ccccc2)c(-c2ccccc2)n1)N1CCc2ccccc21,"inconclusive [inhibitor, single point]"
15,CCCN(CCC)CC(O)CN(c1cc([N+](=O)[O-])ccc1OC)S(=O)(=O)c1ccccc1 (stereo not drawn),"inconclusive [inhibitor, partial curve, poor fit]"
16,Cc1cc(F)ccc1C(O)c1ncc(-c2ccccc2F)[nH]1 (stereo not drawn),inactive
17,O=C(NCc1ccco1)c1cccc(Nc2nc3ccc(Br)cc3[nH]2)c1,"inconclusive [inhibitor, single point]"
18,CCC(C(=O)NC1CCCC1)N(C(=O)c1snc(C(N)=O)c1N)c1ccc(C)cc1C (stereo not drawn),active: 18.4 µM
19,CCOC(=O)CSCc1nc(-c2ccc(Cl)cc2)oc1C,inactive
20,CCOC(=O)CSc1cc(C)c(C#N)c2nc3ccccc3n12,active: 23.1 µM
21,CNC(=S)Nc1cccc([N+](=O)[O-])c1,inactive
22,Cc1cc(C)cc(N(CC(=O)NC(C)(C)C)C(=O)CCC(=O)Nc2nccs2)c1,inactive
23,COc1nc(NC23CC4CC(CC(C4)C2)C3)nc(OC)n1,"inconclusive [inhibitor, single point]"
24,COc1cccc(CN2CCN(Cc3cc4ccccc4[nH]3)CC2CCO)c1 (stereo not drawn),"inconclusive [inhibitor, single point]"
25,Cc1ccc(CCNC(=O)c2cc3c(s2)-c2ccccc2OC3)cc1,"inconclusive [inhibitor, single point]"

row,SMILES,Potency
1,N=c1sccn1CC(=O)Nc1cc(S(=O)(=O)N2CCCC2)ccc1Cl,inactive
2,CCCCCn1c(N)c(-c2nc3ccccc3s2)c2c([N+](=O)[O-])nn(C)c(=O)c21,"inconclusive [inhibitor, single point]"
3,Cc1cccc(NC(c2cccc(F)c2)c2ccc3ccc(C)nc3c2O)n1 (stereo not drawn),active: 5.8 µM
4,O=C(NCc1ccco1)C1CCCN(S(=O)(=O)c2cnc[nH]2)C1 (stereo not drawn),inactive
5,CC(=O)CSc1nc2nccnc2[nH]1,inactive
6,O=C(NC1CC1)c1cccc(NC(=O)C2CCN(S(=O)(=O)c3ccccc3C(F)(F)F)CC2)c1,active: 25.9 µM
7,CC[C@@H](C)C(C(=O)N1CCN(C(=O)OC(C)(C)C)CC1)n1cc(-c2cn([C@@H](C)C(=O)N3CCN(C(=O)OC(C)(C)C)CC3)nn2)nn1 (stereo partly drawn),"inconclusive [inhibitor, single point]"
8,C[C@H](NC(=O)C1CCN(S(=O)(=O)c2ccccc2)CC1)C(=O)NCc1ccco1,inactive
9,COc1ccc(-n2nc(C(=O)Nc3ccc(OC)c(OC)c3)c3c4ccccc4n(C)c3c2=O)cc1,"inconclusive [inhibitor, single point]"
10,CC1CCC(NC(=O)c2ccc3c(c2)N(Cc2ccccc2F)C(=O)c2ccccc2S3)CC1 (stereo not drawn),"inconclusive [inhibitor, single point]"
11,O=C(c1ccccc1)c1ccc(N2CCOCC2)c(F)c1,"inconclusive [inhibitor, single point]"
12,NCCNCCNCCN,inactive
13,CCCCNC(=O)C[C@@H]1C[C@@]2(C(=O)OC)CCCCC=C2N(CCc2ccc(OC)c(OC)c2)C1=O,active: 23.1 µM
14,CN(C)c1cc[n+](CC(=O)Nc2c(Cl)cc(Cl)cc2Cl)cc1,active: 6.51 µM
15,NC(=O)CSc1nc2ccc(NC(=O)COc3ccccc3)cc2s1,active: 23.1 µM
16,C/C(=N\NC(=O)c1cccs1)c1c(O)cc(C)oc1=O,inactive
17,CCc1ccc(C(=O)Nc2nc3ccccc3[nH]2)cc1,active: 11.6 µM
18,O=C(Nc1ccc(-n2cccn2)cc1)C1CCCCN1Cc1cccc2c1OCO2 (stereo not drawn),active: 4.61 µM
19,COc1cccc(-c2cc(NC=O)c3ncc(-c4cc(OC)c(OC)c(OC)c4)n3c2)c1,active: 0.58 µM
20,COc1ccc(Cl)cc1C(=O)NNC(=O)c1csc(N2CCOCC2)n1,"inconclusive [inhibitor, single point]"
21,CC1CCN(S(=O)(=O)c2ccc3c(c2)N(CC(=O)NCc2ccccc2Cl)C(=O)CS3)CC1,"inconclusive [inhibitor, single point]"
22,C[C@H](CO)N1C[C@H](C)[C@@H](CN(C)Cc2ccncc2)Oc2ccc(NC(=O)CCCCCC(=O)Nc3ccccc3N)cc2C1=O,inactive
23,CC(C)=C1C2CCC1C(C(=O)Nc1sc(C)c(-c3ccc(C(C)C)cc3)c1C(N)=O)C2C(=O)O (stereo not drawn),active: 16.4 µM
24,O=C(Cn1nnc(-c2ccccc2Cl)n1)N1CCN(S(=O)(=O)c2ccc(Cl)cc2)CC1,inactive
25,O=C(NC(=S)Nc1ccccc1O)c1ccc(Cl)cc1Cl,active: 29.1 µM

row,SMILES,Potency
1,c1ccc(-c2cc(-c3ccccc3)c3c(n2)-c2ccccc2OC3)cc1,"inconclusive [inhibitor, single point]"
2,COc1ccc([N+](=O)[O-])cc1NC(=O)N(C)Cc1ccco1,inactive
3,Clc1ccc(-c2cn3cccnc3n2)cc1,"inconclusive [inhibitor, partial curve]"
4,CSc1ncc(Cl)c(C(=O)NCc2ccc(C)cc2)n1,"inconclusive [inhibitor, single point]"
5,COc1cccc(OCC(=O)NNC(=O)c2cnccn2)c1,inactive
6,CNc1ncnc2ccc(-c3ccccc3CN(C)C)cc12,"inconclusive [inhibitor, single point]"
7,COc1ccc(C2C(=O)N(C3CCC(C)CC3)CC(=O)N2Cc2ccc(C)cc2)cc1OC (stereo not drawn),"inconclusive [inhibitor, single point]"
8,CCCN(CC(=O)Nc1ccccc1C)C(=O)C1CC(=O)N(Cc2ccccc2)C1 (stereo not drawn),inactive
9,COc1cc2nc(N(CCCN(C)C)C(=O)c3ccc(C(=O)c4ccccc4)cc3)sc2cc1OC,"inconclusive [inhibitor, single point]"
10,O=C(NCCC1=CCCCC1)C1CC(=O)N(C2CCCCC2)C1 (stereo not drawn),inactive
11,CCOc1ccccc1/C=C/c1nc2ccccc2[nH]c1=O,"inconclusive [inhibitor, single point]"
12,COc1ccccc1-c1nnc(SCC(=O)NC2CCCCC2)n1C,inactive
13,Cc1ccc2c(CC(=O)N3CCN(c4cccc(Cl)c4)CC3)coc2c1,"inconclusive [inhibitor, single point]"
14,COc1cc([N+](=O)[O-])ccc1NC(=O)NCC1CCN(Cc2ccc(Cl)cc2)CC1,"inconclusive [inhibitor, single point]"
15,C=CCNC(=O)Nc1ccc(F)c(Cl)c1,inactive
16,CCOC(=O)c1c(C)[nH]c(C(=O)COc2ccc3c(c2)OCO3)c1C,"inconclusive [inhibitor, single point]"
17,COc1cccc(CC(=O)OC(C)C(=O)Nc2ccc(N3CCOCC3)cc2)c1 (stereo not drawn),"inconclusive [inhibitor, full curve, poor fit]"
18,Cc1ccc(-n2ncc3c(NNC(=O)Cc4ccccc4)ncnc32)cc1,"inconclusive [inhibitor, partial curve]"
19,COc1ccc(C[C@@H]2OC3(C=CC(=O)C=C3)O[C@H]2Cc2ccc(OC)cc2)cc1,active: 0.366 µM
20,COc1ccc(OC)c(CNS(=O)(=O)c2c(C(=O)N3CCC(C)CC3)c(C)n(C)c2C)c1,"inconclusive [inhibitor, partial curve]"
21,Cc1ccc2nc(SCc3nnc(-c4ccccc4)o3)[nH]c2c1,inactive
22,COc1c(Cl)cc(Br)c(OC)c1C(=O)NC(=O)Nc1nc(C)cc(C)n1,"inconclusive [inhibitor, single point]"
23,CC(=O)N1CC[n+]2c(-c3ccc([N+](=O)[O-])cc3)csc21,"inconclusive [inhibitor, single point]"
